Laboratory results: US11542275B2, “Substituted imidazolidin-2-one derivatives as PRMT5 inhibitors” (Aurigene Discovery Technologies Limited, priority 2018, dated 2023)

Target: PRMT5/MEP50 Complex (Homo sapiens (Human), UniProt O14744)
Assay: PRMT5 inhibition based on TR-FRET assay
Assay type: biochemical
Conditions: 32 nM PRMT5:MEP50 complex, 50 nM Histone-H4 peptide, 1 μM SAM, 90 minutes at room temperature
Description: Protein arginine methyltransferase 5 (PRMT5) is a type II arginine methyltransferase that catalyze mono- and symmetric demethylation on arginine residues of histone or non-histone proteins in presence of S-adenosylmethionine (AdoMet or SAM) a cofactor responsible for donating the methyl group. PRMT5 is reported to be overexpressed in several human cancers. To identify compounds that inhibit the PRMT5 and decrease its activity, a TR-FRET based assay has been established. Time-resolved fluorescence resonance energy transfer (TR-FRET) HTS assays are homogeneous proximity assays where the interaction of two dye-labeled binding partners is detected by the energy transfer between a donor and an acceptor dye, and the subsequent light emission by the acceptor dye. PRMT5 catalyzes Histone H4 peptide which is biotin tagged to the Lysine amino acid at carboxyl end, in presence of S-adenosyl-1-methionine (SAM) to methylate the peptide. The antibody specific to mono methylated H4 peptide (H4R3) with Ig conjugate binds to the methylated peptide, indirectly binding to the Europium lanthanide. […]
The compound dilutions were prepared as 7.5% DMSO stock solutions in assay buffer. […] The plates were then read on Victor-3 with Excitation at 340 nm and Emissions collected at 615 and 665 nm in TR-FRET protocol. […]

| SMILES | IC50 [nM] |
| --- | --- |
| O=C1N(Cc2ncc(N3C4CCC3COC4)cc2F)CCN1C[C@H](O)CN1CCc2ccccc2C1 [Compound 30, 1-((5-(3-oxa-8-azabicyclo[3.2.1]octan-8-yl)-3-fluoropyridin-2-yl)methyl)-3-((R)-3-(3,4-dihydroisoquinolin-2(1H)-yl)-2-hydroxypropyl)imidazolidin-2-one] | 92 |
| CC(=O)N1CCC(c2ccc(CN3CCN(C[C@H](O)CN4CCc5ccccc5C4)C3=O)nc2)CC1 [Compound 33, (R)-1-((5-(1-acetylpiperidin-4-yl)pyridin-2-yl)methyl)-3-(3-(3,4-dihydroisoquinolin-2(1H)-yl)-2-hydroxypropyl)imidazolidin-2-one] | 14 |
